Here are results for 85 compounds from paper PMC4336329 (PLoS ONE, 2015).

Hit rate of the full screen: of about 310,000 compounds, about 2,200 (0.71%) showed an effect of 50% or more. Effects have a minus sign here. The list shows a part of the results.

Sequence of human ether-à-go-go-related gene (hERG) potassium channel (Q12809 whole entry, looked up): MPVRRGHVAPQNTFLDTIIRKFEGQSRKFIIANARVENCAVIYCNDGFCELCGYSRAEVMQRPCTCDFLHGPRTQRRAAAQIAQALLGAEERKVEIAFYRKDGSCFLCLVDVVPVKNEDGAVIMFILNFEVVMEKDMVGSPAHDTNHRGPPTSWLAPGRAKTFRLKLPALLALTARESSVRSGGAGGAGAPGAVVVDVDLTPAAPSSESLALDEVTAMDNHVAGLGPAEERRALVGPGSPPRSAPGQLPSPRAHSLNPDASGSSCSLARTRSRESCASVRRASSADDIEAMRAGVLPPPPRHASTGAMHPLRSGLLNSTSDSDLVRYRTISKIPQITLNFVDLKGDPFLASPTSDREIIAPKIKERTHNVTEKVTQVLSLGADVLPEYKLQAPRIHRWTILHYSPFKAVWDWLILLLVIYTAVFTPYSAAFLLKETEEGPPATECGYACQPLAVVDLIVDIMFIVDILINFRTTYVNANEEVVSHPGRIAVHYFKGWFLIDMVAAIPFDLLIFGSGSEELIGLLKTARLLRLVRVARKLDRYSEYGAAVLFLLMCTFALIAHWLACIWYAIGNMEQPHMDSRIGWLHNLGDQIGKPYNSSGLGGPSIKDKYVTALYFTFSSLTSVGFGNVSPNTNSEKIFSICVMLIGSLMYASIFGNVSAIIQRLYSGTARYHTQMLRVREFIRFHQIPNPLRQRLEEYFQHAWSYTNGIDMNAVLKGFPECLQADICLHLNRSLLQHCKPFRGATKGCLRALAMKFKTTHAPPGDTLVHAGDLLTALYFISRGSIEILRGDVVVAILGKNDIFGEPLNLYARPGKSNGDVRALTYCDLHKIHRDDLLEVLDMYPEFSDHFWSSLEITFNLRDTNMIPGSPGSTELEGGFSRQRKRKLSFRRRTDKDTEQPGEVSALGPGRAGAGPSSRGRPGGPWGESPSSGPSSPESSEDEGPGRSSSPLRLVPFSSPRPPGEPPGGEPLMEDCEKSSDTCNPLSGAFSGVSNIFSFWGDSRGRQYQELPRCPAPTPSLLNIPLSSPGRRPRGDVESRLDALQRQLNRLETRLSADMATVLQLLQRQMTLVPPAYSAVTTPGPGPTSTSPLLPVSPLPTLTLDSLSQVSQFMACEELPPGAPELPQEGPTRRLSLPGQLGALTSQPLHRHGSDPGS

This assay concerns the target human ether-à-go-go-related gene (hERG) potassium channel (human, UniProt Q12809). Nature of the assay: primary screen, population patch clamp on CHO cells stably expressing hERG.
For the compound `C/C(=N\N1CCCCCC1)c1c(O)n(-c2ccccc2C)c(=O)[nH]c1=O`, the “hERG current change (%, negative = inhibition) at 1uM” value was 4.39%.
For the compound `O=C(O)CN1C(=O)c2ccc(Oc3ccc4c(c3)C(=O)N(CC(=O)O)C4=O)cc2C1=O`, the “hERG current change (%, negative = inhibition) at 1uM” value is recorded as 9.58%.
For `CC(=O)Nc1ccc(NC(=O)CCC(=O)OCC(=O)c2cccc([N+](=O)[O-])c2)cc1`, the “hERG current change (%, negative = inhibition) at 1uM” value is given as 11.2%.
Under `Cc1ccc(S(=O)(=O)N(C)C)cc1NC(=O)c1ccccc1Br` stands 9.32%.
The figure for `O=C(NCCCN1CCOCC1)C(=O)NCC1CCCO1` (stereo not shown) is 12%.
The figure for `O=C(/C=C/c1cccc([N+](=O)[O-])c1)NCCN1C(=O)S/C(=C\c2cccnc2)C1=O` is 0.856%; for `COc1ccccc1NC(=S)NCC1CCC(CNC(=S)Nc2ccccc2OC)CC1` (stereo not shown) it is 8.73%.
Regarding `COc1ccc(-c2csc(NC3CCCCC3)n2)c(OC)c1`, the “hERG current change (%, negative = inhibition) at 1uM” value amounted to 11.2%.
As for `Cc1nc2ccccn2c1P(=Nc1ccccc1)(N(C)C)N(C)C`, the “hERG current change (%, negative = inhibition) at 1uM” value is listed as -6.57%.
The figure for `N#Cc1nc(COc2ccccc2Cl)oc1NCc1ccc(F)cc1` is 6.47%.
Regarding `O=C(NCCCn1ccnc1)C1CCCN(S(=O)(=O)c2cc(Cl)ccc2Cl)C1` (stereo not shown), the “hERG current change (%, negative = inhibition) at 1uM” value is -6.1%.
Under `CCC1Sc2ccc(S(=O)(=O)CCC(=O)NCc3ccco3)cc2NC1=O` (stereo not shown) stands 1.69%; under `OC[C@H]1OC(O)[C@H](O)[C@@H]1O` (stereo partly shown), -47.4%.
As to `CCCn1c(SCC(=O)C(C)(C)C)nc2ccccc21.Cl`, the “hERG current change (%, negative = inhibition) at 1uM” value is listed as 5.49%.
Take `CCOC(=O)[C@@H]1[C@H]2COc3cc(OC)ccc3[C@H]2N2C(=O)N(c3cccc(Cl)c3)C(=O)[C@]12C`: the “hERG current change (%, negative = inhibition) at 1uM” value was 14.9%.
The figure for `Cl.Fc1ccc(CCNCc2cccc(Cl)c2)cc1` is 7.69%.
Under `O=S(=O)(c1cccc(F)c1)N1CCc2sccc2C1c1ccc(OC(F)(F)F)cc1` (stereo not shown) stands 14.5%; under `COc1cc(OC)cc(-c2cc3nc(C)c(CCC(=O)Nc4nc(C)cs4)c(C)n3n2)c1`, 6.38%.
Under `Nc1ccc(S(=O)(=O)Nc2nccc(/C=C/c3cccc(Br)c3)n2)cc1` stands 12.8%; under `COc1cccc(CC(NC(C)=O)C(=O)NC2CCN(S(=O)(=O)c3cccc4ccccc34)CC2)c1` (stereo not shown), 12.6%.
Take `CN(C)C(CNC(=O)c1cc(S(=O)(=O)N(C)c2ccc(F)cc2)ccc1Cl)c1ccco1` (stereo not shown): the “hERG current change (%, negative = inhibition) at 1uM” value is given as -8.47%.
The figure for `O=C1CC(c2ccccc2)CC(O)=C1C=NC1CCCC1` (stereo not shown) is 8.63%.
The figure for `COc1ccc(OC)c(CNC(=O)C2CCN(S(=O)(=O)N3CCCC3)CC2)c1` is 4.03%.
The figure for `COc1ccc(NC(=O)c2cc3ccccc3cc2OC)cc1OC` is 16%; for `CCN(c1ccccc1)S(=O)(=O)c1cccc(C(=O)NCCN2CCOCC2)c1` it is 3.13%; for `O=C(NCCCN1CCCCC1)C1CCCN(c2ncnc3c2nc2n3CCCCC2)C1` (stereo not shown) it is 12.6%.
In the case of `Cn1nc(NC(=O)CC(C)(C)CC(=O)O)c2ccccc21`, the “hERG current change (%, negative = inhibition) at 1uM” value is on record as 21.6%.
In the case of `CN(c1ccccc1)S(=O)(=O)c1cccc(C(=O)OCC(=O)NCc2ccco2)c1`, the “hERG current change (%, negative = inhibition) at 1uM” value is 5.35%.
The figure for `Cc1cccc(CCNC(=O)c2cccc(N3CCCC3=O)c2)c1` is 11.9%; for `CC(=NCc1ccco1)c1c(O)n(C)c(=O)n(C)c1=O` it is -15.4%.
`CCOc1ccccc1N(C)C(=O)Cn1ncc2c([nH]c3ccc(C)cc32)c1=O`: the “hERG current change (%, negative = inhibition) at 1uM” value came to 18.8%.
Under `O=C(Cn1nnc(-c2ccccc2)n1)NNC(=O)c1ccco1` stands 9.15%.
Under `COc1ccc2[nH]cc(CCNC(=S)NC3CCCC3)c2c1` stands 9.4%; under `OC(c1cccc(OCc2ccccc2)c1)c1nnc(-c2ccccc2)o1` (stereo not shown), 7.58%.
Under `CCC1=C(OC(=O)N(CC)CC)N2C(=O)OC(=NCCc3c[nH]c4ccccc34)[C@]2(C)[C@H]2C1=CC[C@H]1C(=O)N(CC)C(=O)[C@H]12` stands 4.26%.
As for `Oc1ccc(/C=N/Nc2nn3cnnc3c3ccccc23)cc1`, the “hERG current change (%, negative = inhibition) at 1uM” value amounted to 14.8%.
The figure for `CN(CCOc1ccccc1)CC(O)COc1ccccc1` (stereo not shown) is 10.3%; for `CC[C@H](C)[C@@H]1NC(=O)c2cc([N+](=O)[O-])cc(I)c2NCC[C@@H](C(N)=O)NC(=O)[C@H](CCCN=C(N)N)NC1=O` it is 8.21%.
The figure for `Cc1ccc(OCC(=O)Nc2nnc(S(=O)(=O)N3CCCCCC3)s2)cc1` is 7.4%.
Under `Cc1ccc(NC(=O)C2CCN(S(=O)(=O)c3ccc(F)cc3)CC2)cc1` stands 0.43%; under `CN(C(=O)c1cccc(S(=O)(=O)N2CCCCC2)c1)C1CCS(=O)(=O)C1` (stereo not shown), 5.43%.
`COc1ccc2[nH]c3c(c2c1)CCN1C(=O)N([C@@H](C)C(=O)NC2CCN(Cc4ccccc4)CC2)C(=O)[C@]31C`: the “hERG current change (%, negative = inhibition) at 1uM” value is -10.2%.
Turning to `O=C(CCSc1ccccc1Cl)NNC(=O)c1ccncc1`, the “hERG current change (%, negative = inhibition) at 1uM” value stood at 6.68%.
Under `Fc1ccccc1COc1ccccc1/C=N/Nc1nc(N2CCCC2)nc(N2CCCC2)n1` stands 7.76%.
The figure for `COCCCNc1ncnc2c1cnn2-c1ccc(C)cc1C` is 8.51%.
Under `CCOc1ccc(-n2c(-c3ccoc3)nc3ccccc3c2=O)cc1` stands -1.56%; under `CCc1nnc(NS(=O)(=O)c2ccc(NCc3cc(Cl)cc(Cl)c3O)cc2)s1`, -9.25%.
Consider `COC(CNC(=O)c1ccc2c(c1)nc(C)n2-c1cccc(F)c1)OC`, for which the “hERG current change (%, negative = inhibition) at 1uM” value amounted to 4.23%.
Under `COc1ccccc1N1CCN(/N=C/c2cc(OC)c(OC)c(OC)c2)CC1` stands 11.3%; under `COc1ccccc1C(CC(=O)N1CCCC1)c1ccc2c(c1)OCO2` (stereo not shown), 10.8%; under `N#Cc1ccc(N2CCCNCC2)nc1`, -90.9%.
Under `Cc1cn2c(N)c(/C=C3\C=Nc4ccccc43)c(=O)nc2s1` stands 4.91%; under `CN1N=C(C(=O)N2CCCC(N3CCN(c4ccc(F)cc4)CC3)C2)CCC1=O` (stereo not shown), 5.57%.
Under `CS(=O)(=O)c1nc(S(=O)(=O)c2ccc(Cl)cc2)c(NCCCN2CCCC2=O)s1` stands 10.8%.
Consider `COc1ccccc1-n1cnc(N)c1C(C)=O`, for which the “hERG current change (%, negative = inhibition) at 1uM” value was determined as 6.83%.
Under `CC(C)(C)C(=O)NC1(C(F)(F)F)C(=O)Nc2c1c(=O)[nH]c(=O)n2Cc1ccco1` (stereo not shown) stands 12.7%; under `COc1ccc([N+](=O)[O-])cc1/C=N/Nc1nc(N2CCCCC2)nc(N2CCCCC2)n1`, 9.62%; under `Cc1ccc(CC2CC(=O)N(CC(=O)O)C2=O)cc1` (stereo not shown), 6.06%.
The figure for `CN(C(=O)COC(=O)C1(C)CC1(Cl)Cl)c1c(N)n(Cc2ccccc2)c(=O)[nH]c1=O` (stereo not shown) is 4.93%; for `Cc1ccc(C)c(C2(O)CC(C)N(C)CC2C)c1` (stereo not shown) it is 3.84%; for `CC1=NN(c2nc3ccccc3[nH]2)C(=O)C1Cc1ccccc1` (stereo not shown) it is 10.2%.
With `COc1ccc2[nH]c3c(=O)n(Cc4ccc(C(=O)NCC5CCCO5)cc4)c(=S)[nH]c3c2c1` (stereo not shown), the “hERG current change (%, negative = inhibition) at 1uM” value is recorded as -2.58%.
Under `O=C(CCN1C(=O)/C(=C/c2ccc(F)cc2)SC1=S)NCCc1ccc(O)cc1` stands 18.6%; under `CCOC(=O)CNC(=S)N(Cc1ccccc1)Cc1cccnc1`, 3.08%; under `CCOC(=S)SCC(=O)Nc1nc(-c2ccc(Br)cc2)cs1`, -92%.
The figure for `CNS(=O)(=O)c1cccc(C(=O)OCC(=O)c2c(N)n(C)c(=O)n(C)c2=O)c1` is 18.3%; for `CN1C(=O)C2CN(CCc3ccccc3)CNC2N(C)C1=O` (stereo not shown) it is 9.63%; for `O=C(Nn1cnnc1)c1ccccc1Cl` it is 15.9%.
Under `CCOc1cc(N2CCOCC2)c(OCC)cc1NC(=O)COc1ncnc2ccc(Br)cc12` stands -0.097%; under `C=CCn1c2ccccc2c2nnc(SCN3C(=O)c4ccccc4C3=O)nc21`, 10.4%; under `Cc1ccc(S(=O)(=O)n2nc(OC(=O)c3cccs3)cc2N)cc1`, 7.23%.
Consider `CCN(CC)S(=O)(=O)c1c(Br)cc(C)cc1Br`, for which the “hERG current change (%, negative = inhibition) at 1uM” value came to 0.03%.
With `Cc1cc(S(=O)(=O)NC2CCN(Cc3ccccc3)CC2)c(C)cc1Cl`, the “hERG current change (%, negative = inhibition) at 1uM” value is reported as -2.54%.
Under `COc1ccc(F)cc1S(=O)(=O)Nc1cc2c3c(c1)CC(=O)N3CCC2` stands 11.6%.
For `COc1ccccc1N=NC1=C(O)CC(C)(C)CC1=O`, the “hERG current change (%, negative = inhibition) at 1uM” value is given as 15%.
The figure for `COc1cc(C2NC(=O)NC(C)=C2C(=O)Nc2cccc(C)c2C)cc(OC)c1OC` (stereo not shown) is 14.4%.
Turning to `COc1cc(NC(=O)NNC(=O)c2cc3occc3n2C)cc(OC)c1OC`, the “hERG current change (%, negative = inhibition) at 1uM” value is 20.4%.
As to `Cc1ccc(S(=O)(=O)Nc2c(NC3CCCCC3)c3ccccc3oc2=O)cc1C`, the “hERG current change (%, negative = inhibition) at 1uM” value worked out at 7.18%.
The figure for `CCc1ccc(OCC(=O)N/N=C/c2cc([N+](=O)[O-])ccc2N2CCOCC2)cc1` is 9.34%; for `Cc1cccc(C(=O)Nc2cccc(C(=O)N/N=C/c3ccccn3)c2)c1` it is 20.4%.
The figure for `O=C(CSc1n[nH]c(-c2ccncc2)n1)NCCc1ccccc1` is 17.7%; for `COc1ccc(CC(=O)N/N=C/C=C/c2ccc3c(c2)OCO3)cc1OC` it is 12.1%; for `CCC(CC)NC(=O)CC(c1ccccc1)c1ccccc1` it is 16%.
The figure for `CC(C)Oc1ccc(C2CC(=O)N(c3ccccc3)C2=O)cc1` (stereo not shown) is 12.2%; for `CC(C)c1ccc(N=C2N=C(N)c3ccccc32)cc1` it is -10.7%.
